Experimental data published in the RNAGym collection of RNA variant scans (doi:10.7554/elife.90254).
Read counts are not given, so values of variants with three or more changes are uncertain.

B1: LINE1-mini (parent)
chain: GGCAGAGCUCAACACAGCGUGGCAAAGUGGCUGUGGCUAGACUGCC

Variants of: B1
Assay: self-cleavage, relative activity (ratio to wild type); higher = more cleavage; in vitro, sequencing; the parent is a self-cleaving ribozyme

| Variant | self-cleavage |
| --- | --- |
| A4U C10A C31U C42A | 0.05 |
| A4U C15U G36U C46U | 0.05 |
| A4U C8U G22C A26U U43G | 0.4 |
| A4U A26U U43A G44U | 0.49 |
| A4U C13A A39G G40A C42G | 0.04 |
| A4U C18G G19A G35A U43C C46A | 0.01 |
| A4U C8G G19C G33U C37A | 0.07 |
| A4G G5U G7C C8U U34C C45G | 0.33 |
| A4G G22C U28C G33U U34C | 0.09 |
| A4U C31G G33C | 0 |
| A4U A6U A11G A12C C15U U20C G35C A39C | 0.01 |
| A4U G19U U20C G22U G30A | 0.09 |
| A4U G17U G22U | 0.04 |
| A4U G5U A16U | 0.26 |
| A4G A25U C45U | 0.25 |
| A4G C13A G33C | 0.09 |
| A4U A26U U34G U38G A41G | 0.03 |
| A4G A12G G19U | 0.01 |
| A4G C8G C13A C15A U34G C42G | 0.07 |
| A4G G21A G22U C45G | 0.05 |
| A4G C10A C13U C18G G19A G30C | 0.01 |

| Variant | self-cleavage |
| --- | --- |
| A4U G7A A12G U20G G21C | 0.03 |
| A4U A16G G22U G29A C31G | 0.02 |
| A4U C42G G44A | 0.03 |
| A4G A24G G27C U28G G40U | 0.06 |
| A4G G19C C23U | 0.11 |
| A4U C13A A24C U32A G36A A39C | 0 |
| A4G C13U C37A | 0.02 |
| A4G C18A U34G C37U | 0.09 |
| A4G U28A C31G | 0.09 |
| A4U G19C G21U | 0.4 |
| A4G C13U G36U | 1.86 |
| A4U G7C U34A | 0.08 |
| A4G A12G C23G G40U A41C | 0.02 |
| A4G C13A A14C A16C C42G | 0.05 |
| A4G C18A C42G | 0.29 |
| A4U C15A G33A | 0.02 |
| A4U G5A A39C C42G | 0.04 |
| A4G G35U C37U G40A | 0.1 |
| A4U A14U A26G U34C U38A C45G | 0.03 |
| A4G C13A C18G C45U | 0.04 |
| A4G G21U G29A | 0.39 |

| Variant | self-cleavage |
| --- | --- |
| A4G G17U G29U C42A | 0.14 |
| A4U C37A G40U G44A | 1.48 |
| A4G G7U G17U | 0.07 |
| A4U C10G G33C G36A U38C | 0.01 |
| A4G C13A C18A G22C | 0.05 |
| A4G G17U U38G | 0.38 |
| A4U C8G U9A C10U C45G | 0.07 |
| A4U C23U C42U | 0.27 |
| A4G G5A G17C C31U | 0 |
| A4U C8U C10A C13U A24U A41U G44A | 0.04 |
| A4U G5A G44C | 0.06 |
| A4U A11U G30C | 0.04 |
| A4G G29U C42U | 0.08 |
| A4G G7A C13A C18G G44A | 0.12 |
| A4U C10U A11C A12G G33C C45U | 0.01 |
| A4G G22C G29U | 0.21 |
| A4U A14G G22A | 0.12 |
| A4G C10A A12C C31A C45A | 0 |
| A4U A14C G44A | 0.06 |
| A4G G22U G29A G36C G44C | 0.17 |
| A4U G21A C46U | 0.14 |

| Variant | self-cleavage |
| --- | --- |
| A4G C37G G44C | 0.01 |
| A4U C10G U20A G22A | 0.02 |
| A4G C10G C37U C45U | 0.01 |
| A4U A6C C18G | 0.01 |
| A4G G27U A39U C42U | 0.06 |
| A4G G5C C18A U20A C31A | 0.07 |
| A4U A6G G17U G19A U32C | 0.01 |
| A4U A12G C18A G30U C42U | 0.02 |
| A4U C13G C42G C46G | 0.03 |
| A4G G29A U32A U38C G40C | 0.04 |
| A4G C10A G30A G40C | 0 |
| A4U A6G A14U A26U | 0.04 |
| A4U A14U G19C C42A | 0.09 |
| A4G C10G A14G G22A C23G | 0.01 |
| A4G G22U A41U | 0.75 |
| A4U G5U C23U | 0.04 |
| A4U G7U G30U U34A | 0.02 |
| A4U A6C C10A U20C U28G | 0.01 |
| A4U G17A C46A | 0.05 |
| A4U G17A G29U | 0.07 |
